In the supplement of paper PMC11417369:
± gives the standard deviation of the averaged measurements. The list shows a part of the results.

Each sequence was assayed on PfAP2-I AP2 domain 3 (GST-tagged) (assay: gcPBM binding intensity (ln(normalized median fluorescence intensity)); higher = stronger DNA binding).
Method in brief: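 DNA-binding domains from P. falciparum, fused to GST and produced in E. coli, were put on an Agilent 4 × 180k double-stranded probe array for 1 h in 1× PBS holding 1% milk, 0.2 mg/ml BSA, 0.5% salmon testes DNA and 0.03% Triton X-100. Probes were primer-extended, 36 bp long and drawn from intergenic genomic regions, with negative controls included. After Alexa488 anti-GST antibody detection and a 488 nm scan, binding intensity was set as the highest Masliner-normalised natural-log median intensity across replicate spots of either probe orientation.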

Sequence | gcPBM binding intensity (ln)
TTTTTTTTTTTTTATTGTACTTATTTTTTTATGTTT [XGTACX_site7725] | 8.22 ± 0.64
AAATATAAAGGATTAATATTATATATATATATATAT [XGTACX_negctrl_site211] | 9.12 ± 0.4
GTATTATATATATAGGTGCATATATATATATAAATA [GTGCAC_site9787] | 10.6 ± 0.33
ATGATATGGATAAATACACACAATAAAATAATGTCT [CACACA_site6786] | 7.79 ± 0.73
TTTATTTATTTATGTTGTACAAGTTTATACTGGAAT [XGTACX_site6479] | 8.06 ± 0.42
TTTTAACAAAACAAAACAAAATAATATAAAGATAAC [TGCATGCA_negctrl_site154] | 8.16 ± 0.59
TTTTGATATAAAAAAAGTACATTAATAATATTAATT [XGTACX_site4248] | 7.885 ± 0.078
TAAATAATAATAAATGTGCACAGGTATTAACAAAAA [GTGCAC_site9988] | 9.38 ± 0.93
CAGTATTCTTCTATATGTACTTATTTAAATATTCTT [XGTACX_site7555] | 7.93 ± 0.53
AATCAAAATTCATTAACACACAATTTTAATATTCTT [CACACA_site5178] | 7.59 ± 0.56
TATTTTTATAAGAGCATGCACTGTTTAAAATGGTAT | 8.37 ± 0.45
TTTTTTAAAATATGGACACACATATATATATATGTA [CACACA_site2784] | 7.67 ± 0.3
AGAAAGAATGAAAAATGTACATATATGTAATAGCTA [XGTACX_site364] | 7.87 ± 0.39
TAAAATTTAAAAAGGTGTACACTATAAATTAAAATA [XGTACX_site2081] | 8.11 ± 0.7
ATAAAATCATTCAATGGTACAGAAATACAAAATGTA [XGTACX_site6739] | 7.61 ± 0.64
TTAACATATGACATTTTTTCACCCTTCCTTTATTTT [CACACA_negctrl_site1192] | 7.86 ± 0.74
TATGTATAAAAATATTGTACATATTATATATATATA [XGTACX_site2947] | 8.905 ± 0.049
AGGTCACATTTGTCCTCACACATAGATAAATATATA [CACACA_site5460] | 7.69 ± 0.45
TTTTTTTTTTTTTTTTTTTGATTCTTATAAAAATTT [GTGCAC_negctrl_site240] | 7.94 ± 0.62

Sequence | gcPBM binding intensity (ln)
ATAATTTGATCAATTTTTCATTTTTCATTTTTTTAA [CACACA_negctrl_site1252] | 7.52 ± 0.62
AATTAGCATTAAAAATGTACAAAAGAAAAAAATATA [XGTACX_site3816] | 7.61 ± 0.64
GTCAAAAATAATATATGTACTTATAATAGATAAATG [XGTACX_site7755] | 7.93 ± 0.28
GTATATAATTATATATGTACTAAATAAATATTTTTA [XGTACX_site6062] | 7.55 ± 0.36
AAAAAATAAAAAAATAAAAAATAAAAAATAAAAAAT [TGCATGCA_negctrl_site90] | 7.46 ± 0.59
TTTTCTAAAAAAAGTTGTACATCTTATTTATATTAT [XGTACX_site295] | 7.69 ± 0.49
ATGTAAGACAAAAAGGGTACATAATGCGTATGTATT [XGTACX_site4666] | 8.03 ± 0.72
AAAAATTACCCATCCATACACACATATTTTTTTTAA [CACACA_site2190] | 8 ± 0.49
TATAAAAATAAATAAATAAATAAATAAATAAATAAA [TGCATGCA_negctrl_site310] | 7.74 ± 0.58
AATATTTTTATATATATACACACTTACATATATATA [CACACA_site3609] | 7.88 ± 0.47
ATAATATTGTGGTATACACACCTTACAAAAAGGTAC [CACACA_site5582] | 8.01 ± 0.64
TTTTTAGTTAATTAAACACACAAAAAAAAAAATAAA [CACACA_site3930] | 7.6 ± 0.45
ATTTTTTCATATTCTACACACGTGAACAAATGTGTC [CACACA_site3007] | 8.09 ± 0.59
TATATTTGGTTTCATTCATTTTTATAGAAATCTCAA [CACACA_negctrl_site1412] | 7.58 ± 0.35
TATTTTTTTACATATTGTACATAATATAAAACTTAC [XGTACX_site8273] | 7.98 ± 0.41
CACACGTATATATATACACACTAAAATACCCAGACA [CACACA_site6142] | 8.06 ± 0.57
ATATAATAGAAGTGTACACACATATTTATGGGTGTA [CACACA_site5686] | 7.82 ± 0.32
AATGACTACATAATAGTGCAATATTAAAGAAAATTA | 10.8 ± 0.55
ATTCTTAAAAAAAAATGTACACATGAACAATATGTA [XGTACX_site362] | 7.63 ± 0.38

Sequence | gcPBM binding intensity (ln)
TGTATATCATAAGATGGTACACGTGTGTGCGTATGC [XGTACX_site2255] | 8.71 ± 0.29
TATATATTATATATGTGTACTCACTAACAAAAATTA [XGTACX_site6285] | 7.82 ± 0.33
AGGTGAATATTTTTTACACACATAAAAAAAATATAT [CACACA_site57] | 8.12 ± 0.26
TTTAAGATTTTGTAATGTACATATATACATATATAT [XGTACX_site399] | 7.77 ± 0.41
TATATTTTTATAATAACACACGATATATGTTTAGGA [CACACA_site1283] | 8.1 ± 0.55
AAATTATATAAAGGAACACACATTTTATTTTATTTT [CACACA_site1500] | 7.5 ± 0.49
TATAAATCTATAAATGCACACAAGGGAAGAAAAACG [CACACA_site2965] | 9.46 ± 0.26
AAAGAACAAATAAAACATAAAATAATATATATAGAT [CACACA_negctrl_site1764] | 7.79 ± 0.64
CAAACAATTAAACAAACACACATATACAAGTATATA [CACACA_site8639] | 7.34 ± 0.35
TATTATTCCAAGAAAAAAAAAAATAAAAAAAAAAAA [CACACA_negctrl_site1424] | 8.03 ± 0.76
ATTAAAATTTGTTAAAGTACTTAATAAAAATTTTTC [XGTACX_site1959] | 7.63 ± 0.36
ACAACAATTCACTTGATGCACTAACCAAAAAAATAA | 10.1 ± 0.38
CACGCACGCAGACACACACACACACGCACATATATA [CACACA_site6303] | 8.17 ± 0.4
ACATATATTTTTTTTTGTACATATAAATATATATAT [XGTACX_site6491] | 8.7 ± 0.39
ATTAAAATATAAGTCACACATATATATATATATATA [CACACA_site6145] | 9.16 ± 0.52
TATTTTTTTTTATTTTTTTTTATTTTGTTTTTTTAT [TGCATGCA_negctrl_site315] | 7.32 ± 0.52
ATATATTTTCCTTCAAGTACACATATAAATGTGTAT [XGTACX_site6633] | 7.97 ± 0.4
AAAAAAATAATCATCACACACGGAGAATGTCCAATA [CACACA_site5305] | 7.55 ± 0.65
